Sequences with one replicate were seen in a single cluster, so their values are uncertain.
Tested on: ATP
Test: switch fluorescence ratio, 500 uM ATP over buffer (Cy3 cluster intensity, sum of 5 cycles each) (fold (ratio)); higher = stronger signal-on switching upon ATP binding; sequences stand for … in TCGTCGGCAGCGTCAGATGTGTATAAGAGACAGTTTTTTTTTTTTTTTTTTTTTTTTT…TC
Settings: aptamer strand: ATP DNA aptamer (quencher-CACCTGGGGGAGTATTGCGGAGGAAGG + anchor), 100 nM annealed; ATP concentration: 500 uM; one replicate
Outline: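 Exposure to 500 uM ATP lasted 15 min at 22 °C before imaging, and a selection-buffer image was taken beforehand, for Cy3-labelled switching-strand clusters on a modified Illumina MiSeq flow-cell annealed to 100 nM quencher-labelled ATP aptamer. Five buffer/ATP cycles were run with NaOH stripping and re-annealing between them. The fluorescence ratio per cluster is summed target-cycle over summed buffer-cycle Cy3 intensity, averaged per switch-domain sequence. Clusters outside 100-1000 RFU were excluded.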

Sequence	switch fluorescence ratio
CTCCATTAGC	1.28
TACGAACATG	1.24
TCAGGACAGC	1
TTAAAAAGCC	0.974
TTAGAGGGGC	1.04
GCCCTGACTT	1.08
TCAGTCAGGA	1.06
ATGCAAAAAT	0.956
ATGAGGTAC	0.985
GTTAATTCCG	1.04
ATTTAGAGGA	1.04
CGCGCTATGA	1.04
AAGAGAGACT	1.01
GACCTTACAC	1.39
CTTGGGGGGC	1.03
TAAAAACAGA	1.23
CCCTGGAATG	1.09
CGGTCCTGC	1.05
GGGAAGACAG	0.981
CCATACATCT	1.02
CCCTCGGTTT	1.05
TATTGACTGG	0.937
GGGGTCCAGG	1.18
GAGTGTTTT	1.06
CAGGTTTCAG	0.982
GCTGAGTTGC	1

Sequence	switch fluorescence ratio
ATCGACAGCC	1.03
TCAAACCGTA	1
GGCTAAGGGC	1
TGCGTCCAAT	1.03
ATGCCACTAG	1.02
TTCGTTCCT	1.05
GATGGTATAT	0.943
AGTCGCACAC	1.48
CAGGTCTACC	0.995
CGTGGGCGAG	0.989
GCTAGTAAGC	0.951
AGTGGTTGGG	1
TGGCCTAACC	1.02
AACCCTGGTG	4.87
TTTGAGAGAC	0.97
TGGGTCCCGG	1.02
CTCGTGTTAT	1.01
ATAGAAACGA	0.99
ATTTGCAGTA	1.04
AGGAAGCGCG	1.01
GCATTTTTG	0.977
AAATGGCCTA	0.972
AAAACGGGAT	0.967
CCGACTAAAG	1.19
ATAAGACGCT	1.07
TCCGTCACAT	1.41

Sequence	switch fluorescence ratio
GATGGACGAA	0.965
TGTTATTTAA	0.982
ATTCGTACGC	1.25
TTCGACATTT	0.974
TTACCTGTTT	0.981
TTGGACACGA	0.985
AGATAGCGCG	1.03
TCCCCTTCTT	1
CTAGTAAAGG	0.953
TAAGCCCGCA	1.08
GGGGGCGAAG	1.03
AGGAAAAGGT	0.965
TGAGATTATG	0.986
GTTATTTTTA	0.986
CGGACATGAG	1
ATAGTAATTT	0.956
GAACCAATTT	1.02
GGAATGCGCG	0.919
TTCGATTATC	1
GGGGATTAG	0.987
GCCCCCACAA	1.18
CGCAATCCGG	4.21
TCACAAAAAT	0.992
CACGGATACC	1.23
AATAAAGCAG	0.993
AGGACGCTCT	0.98

Sequence	switch fluorescence ratio
GGGAAAGCAT	1.1
GAGAAAGGAT	0.992
ACATTCACTG	1.11
ACGACTACGC	1.35
GGAGGATAGT	1.03
AGAGAGCGAT	0.973
GGTTTGATGG	1.02
GGCTTACCGA	1.01
GCGATGCTCG	1.15
TAATTTCCGA	1.03
AGTAGGTGAA	1.05
CCAGTGGAGC	1.06
GGCCCCCCGA	1.06
TTCTCGCAG	1.11
CGGGCACGGA	1.03
TCCGTACGTC	1.45
ACGAAAAATT	1.03
AGTCATGGG	0.986
ACGAGGGCGC	1.17
CCGTTAGACC	1.57
TGGATGTGCT	1.04
CGCCATTTGG	0.999
ATAAGTAGAG	1.01
ACAAATTAAC	0.976
TCCTCACGAA	2.61
ATGTAGGTTC	0.993

Sequence	switch fluorescence ratio
TCTCCCGGAT	1.08
GGGAAGCTAA	1.02
GAACGGCATA	1.19
GAGTTTTTAG	0.937
TTTGGCCGG	1.01
TTCGTTTACG	1
TTGCTGATGA	0.985
ACATTCTTGA	0.992
ACACCTCTGT	0.988
AGGCCAAACT	1.01
GGAAGCATGG	1.12
ATCGTGATCT	1.02
CCACCGATTG	1.18
GGGCACATGA	0.985
GTCGATACCG	0.978
TCACTTAGTT	1.03
GGTAATACG	1.08
ATATGTATTT	1.01
CACGTCAGCG	1.04
GTGTTGAGCA	0.988
ACGTATTAAA	1.02
GAGTAAAGGT	1
AATTTGGCGG	1
AATATAGCTG	1.09
CGGACAGTTG	1.01
CACGTACCAG	1.65

Sequence	switch fluorescence ratio
AGAGCGGGCA	1.07
TTATCCTATT	0.998
TAATTAACGG	0.966
TTGTGCCTA	0.982
AGATGTCCAC	1.01
GGAGGAATTA	1.02
CCATGGATAG	1.02
CCTATTACGT	1.04
ATTGCGTTTC	1.08
ATTCGTCATC	1.05
CCGATGTGAG	1.21
CCTTTGGAAA	1.04
ATGGAGTTCA	1.02
TTGACTACTC	0.963
CTGGTAAGGG	0.996
TTTCCACAGT	2.12
GGTGGCTAGA	0.973
GGAGTCGCCA	0.973
CGAAATATCA	1.06
CCTGGTCGGG	1.01
TTTCTGAAGG	0.972
AGCGCTTTCA	0.976
GCATCTTTCA	0.964

From the supplement of paper PMC10126150
